Test results: ChEMBL document CHEMBL1201862, “PubChem BioAssay data set” (2004)
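Where inhibition never reached the appropriate level, the endpoint shown equals the highest concentration tested. Otherwise, values were interpolated linearly from a five-concentration, 48-hour dose response in 96-well plates. GI50: concentration for 50% inhibition of growth.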 Active and inactive are the calls of the source. Cut-off read from the data, not from the text of the source: active = GI50 up to about 1.1 µM and inactive = higher. Peptide text beside a SMILES is read from it. * marks the point of attachment. Fmoc = O=C(OCC1c2ccccc2-c2ccccc21)*; Boc = CC(C)(C)OC(=O)*

These compounds were tested on NCI-H322M (assay: DTP human tumour cell line panel, 48 h).

| SMILES | GI50 |
| --- | --- |
| COC1(C)CP(=O)(OC(C)C)CC(C)=C1Cl (configuration not stated) | inactive: 22.1 µM |
| CC(C)(Br)C1(O)CCCN1C(=O)c1ccccc1 (configuration not stated) | inactive: > 100 µM |
| c1cnn(C23C4C5C6C4C2C6C53)c1 (configuration not stated) | inactive: > 100 µM |
| NC1CCCCC1.O=P(O)(O)C1(P(=O)(O)O)CC1 | inactive: > 100 µM |
| C/C(=N/NC(=S)N(C)CCc1ccccn1)c1cnccn1 | active: < 0.0231 µM |
| [O-][S+](Cc1ccccn1)c1nc2ccccc2nc1-c1ccccc1 (configuration not stated) | inactive: 42.4 µM |
| Cc1ccc(-c2nnc(-c3nn(-c4ccccc4)c4nc5ccccc5nc34)o2)cc1 | inactive: 30.4 µM |
| [N-]=[N+]=NC(CBr)c1cn([C@H]2C[C@H](O)[C@@H](CO)O2)c(=O)[nH]c1=O (some centres not stated) | inactive: > 100 µM |
| CN(C)c1ccc(C=c2c3ccccc3n3c2cc(-c2ccc(Cl)cc2)[n+]3C)cc1 | active: 0.465 µM |
| COC1=CC(=O)O/C1=C(\OC)C1OC1c1ccccc1 (configuration not stated) | inactive: > 100 µM |
| COC(=O)C1=CC(=O)[C@@H]2CCCC[C@H]12 | inactive: > 100 µM |
| COc1cc(CNc2nc3c(N)cc(C(F)(F)F)cc3nc2-c2ccccc2)cc(OC)c1OC | inactive: > 10 µM |
| BrC1=CCC23CC=C(Br)[C@H]4CC2(COC3)C[C@@H]1O4 (some centres not stated) | inactive: 62.7 µM |
| CC1(C)C=Cc2c(cc3oc4ccc5c(c4c(=O)c3c2O)C=CC(C)(C)O5)O1 | inactive: > 100 µM |
| COP(=O)(OC)C(N)CCSC (configuration not stated) | inactive: > 100 µM |
| COC(=O)c1c(OC(C)=O)ccc2c1c1c(OC(C)=O)c3ccccc3c(OC(C)=O)c1n2C | inactive: 29.4 µM |
| C=C(Br)CNC(=O)Nc1ccc(Cl)c(Cl)c1 | inactive: 24.4 µM |
| O=c1oc2ccccc2c2nc3ccccc3cc12 | inactive: 48.6 µM |
| Nc1ncnc2c1ncn2COC/C=C/I | inactive: > 100 µM |
| C=C1CC/C=C(\C)CCC[C@H](C)[C@@H](O)[C@@H]2OC(=O)C(=C)[C@@H]2C[C@H]1O | inactive: 24.1 µM |
| CCc1ccc(Nc2ccc([N+](=O)[O-])cc2[N+](=O)[O-])cc1 | inactive: 33 µM |
| COC(=O)/C=C1/CCC(C(=O)OC)N1 (configuration not stated) | inactive: > 100 µM |
| COC(=O)c1ccccc1NC(=O)C(=O)CC(=O)c1ccccc1NC1=CC(=O)C(=O)c2ccccc21 | inactive: 15 µM |

| SMILES | GI50 |
| --- | --- |
| CCCCCCCCCCCCN(CC(O)C(O)C(OC1OC(CO)C(O)C(O)C1O)C(O)CO)C(=O)CCCCCCCCCCC (configuration not stated) | inactive: 19.7 µM |
| O=C1O[C@H](C(Cl)(Cl)Cl)N2CCCC12 (some centres not stated) | inactive: > 100 µM |
| Nc1ccc(C(=O)Nn2c(-c3ccccc3)nc3ccccc3c2=O)cc1 | inactive: > 100 µM |
| CC(C)(C)OC(=O)NCCCCC(NC(=O)OCC1c2ccccc2-c2ccccc21)C(=O)N1CCCC1C(=O)NCC(N)=O (stereo not drawn) (Fmoc-Lys(Boc)-Pro-Gly-NH2; configuration not given here) | inactive: > 100 µM |
| O=C1CCCC2=C1CC1=C(CCCC1=O)N2c1ccccc1C(=O)O | inactive: > 100 µM |
| COC12COC(=O)C1C(c1ccc3c(c1)OCO3)c1cc3c(cc1O2)OCO3 (configuration not stated) | inactive: 38 µM |
| CO[C@H]1[C@@H](O)[C@@H](C)O[C@@H](O[C@H]2CC[C@@]3(C)[C@H](CC[C@@H]4[C@@H]3CC[C@]3(C)[C@@H](C5=CC(=O)OC5)CC[C@]43O)C2)[C@@H]1O [ODOROSIDE H] | active: 0.00652 µM |
| O=C1c2ccccc2C2CCC1c1ccccc12 (configuration not stated) | inactive: 45.3 µM |
| O=C(NN1C(=O)C(Cl)C1c1ccc(O)cc1)c1ccccc1O (configuration not stated) | inactive: 21.3 µM |
| Clc1ccc(/C=N/Nc2nnc3c4ccccc4c4ncccc4c3n2)cc1 | inactive: > 10 µM |
| CCOC(=O)C1=C(C)CC2C(=O)OC(=O)C2C1(C)C (configuration not stated) | inactive: > 100 µM |
| Oc1cc(-c2cccc(OCc3ccccc3)c2)nc2cc3c(cc12)OCO3 | active: 0.824 µM |
| COc1cc2c(cc1OCCCCN1C(=O)c3cccc4cccc(c34)C1=O)N=C[C@@H]1CCCN1C2=O | inactive: 16.2 µM |
| COC(=O)c1ccc(/N=N/N(C)CO)cc1 | inactive: > 100 µM |
| CO[C@H]1[C@H](O)[C@H](O[C@H]2CC[C@@]3(C)[C@H](CC[C@@H]4[C@@H]3CC[C@]3(C)[C@@H](C5=CC(=O)OC5)CC[C@]43O)C2)O[C@@H](C)[C@@H]1O [NERIIFOLIN] | active: 0.000904 µM |
| CSc1ncnc2c1cnn2CCCCO | inactive: > 100 µM |
| CN(NC(=O)CCCl)C1=NCCCCN1 | inactive: > 100 µM |
| CCOC(=O)C1=C(NC)OC/C1=N\NC(=O)c1ccccc1O | inactive: 27.9 µM |
| Cc1cc(C)n(CN(CCCCO)Cn2nc(C)cc2C)n1 | inactive: > 100 µM |
| NCc1cccc(O)c1O | inactive: > 100 µM |
| CN1C2=Nc3n(C)c4ccccc4[n+]3CN2c2ccccc21 | inactive: 71.1 µM |
| CC(C)CNCCc1ccccn1 | inactive: > 100 µM |
| CC(C)(C)OC(=O)NCC(=O)N(CCc1ccc(Cl)c(Cl)c1)CCN1CCCC1 | inactive: 19.7 µM |

| SMILES | GI50 |
| --- | --- |
| COc1ccc(-n2cnc3c(NC(CCSC)C(=O)O)ncnc32)cc1 (configuration not stated) | inactive: > 100 µM |
| CCOc1cccc2c1N[S@@](=O)S2 | inactive: > 100 µM |
| CCCC(=O)c1c(NOC2OCC(OC(C)=O)C(OC(C)=O)C2OC(C)=O)nc(OC)n(C)c1=O (configuration not stated) | inactive: > 100 µM |
| Cc1cccc(NC(Nc2cccc(C)c2)=C(C(Cl)=C(Cl)Cl)[N+](=O)[O-])c1 | inactive: 23.7 µM |
| COc1cc2c(cc1OC)C1C3CCCCC3CCN1CC2 (configuration not stated) | inactive: > 100 µM |
| O=C(Nc1cc(C(F)(F)F)ccc1Cl)C(=O)C(C(=O)c1ccc2ccccc2c1)C1OC(=O)c2ccccc21 (configuration not stated) | inactive: 5.36 µM |
| CS(=O)(=O)OCCCCOS(C)(=O)=O [BUSULFAN] | inactive: > 250 µM |
| Nc1nc[n+](Cc2ccccc2)c2ncn(Cc3ccccc3)c12 | inactive: > 100 µM |
| O=C(O)CSc1ccc(N=C=S)cc1 | inactive: 81.1 µM |
| O=c1c(-c2ccccc2)c(SCCCN2CCCCC2)n(-c2ccccc2)c(=S)n1-c1ccccc1 | inactive: > 100 µM |
| O=c1c2c3c(sc2nc2n1N=CN(c1ccc(Cl)cc1)C2)CCCC3 | inactive: 94 µM |
| [N-]=[N+]=NC1C2CC3CC(C2)CC1C3 (configuration not stated) | inactive: > 100 µM |
| COc1ccc(OCc2nc3cc(C(F)(F)F)ccc3nc2-c2ccccc2)cc1 | inactive: > 100 µM |
| O=C1OC(/C=C/c2ccccc2)C(=O)C1=O (configuration not stated) | inactive: > 100 µM |
| CN(C(=O)C12C3C4C1C1C2C3C41C(=O)N(C)C(C)(C)C)C(C)(C)C (configuration not stated) | inactive: > 50 µM |
| CCOC(=O)Cn1nnc2cc(Nc3nc4ccccc4nc3C(=O)OCC)ccc21 | inactive: > 100 µM |
| c1c2c(cc3c1OCO3)-c1cc3ccc4c(c3c[n+]1CC2)OCO4 [COPTISINE CHLORIDE] | inactive: 1.5 µM |
| COc1ccccc1NC(=O)CC(=O)n1nc(-c2ccccc2)c(/N=N/c2ccccc2[N+](=O)[O-])c1-c1ccccc1 | inactive: > 100 µM |
| CCN1C(=O)c2cc(OC)c(OC)cc2C(=O)C12OC(=O)c1cc3c(cc12)OCO3 (configuration not stated) | inactive: 36.1 µM |
| O=C(Nc1c(C(=O)NC2CCCCC2)[nH]c(=O)[nH]c1=O)c1ccc(Cl)cc1 | inactive: > 100 µM |
| COC1OC2COC1(OCc1ccccc1)C1OC(C)(C)OC21 (configuration not stated) | inactive: > 100 µM |
